Measurements as given in the supplement of paper PMC10126150.
Values marked as one replicate rest on one cluster of the flow cell; about a third of the high ones do not repeat.
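Also: ATP exposure 15 min at 22 °C before imaging.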

Each sequence was assayed on ATP (assay: switch fluorescence ratio, 500 uM ATP over buffer (Cy3 cluster intensity, sum of 5 cycles each) (fold (ratio)); higher = stronger signal-on switching upon ATP binding; sequences stand for … in TCGTCGGCAGCGTCAGATGTGTATAAGAGACAGTTTTTTTTTTTTTTTTTTTTTTTTT…TC). Conditions: aptamer strand: ATP DNA aptamer (quencher-CACCTGGGGGAGTATTGCGGAGGAAGG + anchor), 100 nM annealed; ATP concentration: 500 uM; one replicate.
Procedure, shortened: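 The fluorescence ratio divides summed target-cycle Cy3 intensity by summed buffer-cycle Cy3 intensity for each cluster and is averaged per switch-domain sequence. Cy3-labelled switching-strand clusters on a modified Illumina MiSeq flow-cell were annealed to 100 nM quencher-labelled ATP aptamer, then imaged in selection buffer and again after 15 min with 500 uM ATP at 22 °C. Five such cycles were run, with NaOH stripping and re-annealing between them, and clusters outside 100-1000 RFU were excluded.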
CGTCGCTGTT showed a switch fluorescence ratio of 0.993.
Sequence CGTCGGGGCC has a switch fluorescence ratio of 0.979.
CGTCGTGATC was tested, and the switch fluorescence ratio was 1.07.
Sequence CGTCTACCTA has a switch fluorescence ratio of 1.05.
Work on CGTCTCAGAA yielded a switch fluorescence ratio of 0.984.
CGTCTCATTT was tested, and the switch fluorescence ratio was 0.949.
With CGTCTCGATG the switch fluorescence ratio was 1.02.
For CGTCTCTCTT, the switch fluorescence ratio was 1.03.
Sequence CGTCTGAGGG has a switch fluorescence ratio of 0.972.
With CGTCTGCTTG the switch fluorescence ratio was 1.03.
In the case of CGTCTTAGTC, the switch fluorescence ratio is reported as 1.04.
CGTGAAAATG gave a switch fluorescence ratio of 0.972.
For CGTGAACGAG, the switch fluorescence ratio was 0.978.
In the case of CGTGACCAGA, the switch fluorescence ratio is reported as 1.1.
CGTGACCGTA gave a switch fluorescence ratio of 1.01.
CGTGACTTCC was tested, and the switch fluorescence ratio was 2.03.
In the case of CGTGACTTTG, the switch fluorescence ratio is reported as 1.07.
For CGTGAGATCC, the switch fluorescence ratio was 1.
CGTGATATGA showed a switch fluorescence ratio of 1.
In the case of CGTGATGTTA, the switch fluorescence ratio is reported as 1.05.
In the case of CGTGATTGG, the switch fluorescence ratio is reported as 0.997.
In the case of CGTGCACCTG, the switch fluorescence ratio is reported as 0.949.
Work on CGTGCACGGG yielded a switch fluorescence ratio of 1.01.
Sequence CGTGCCCTAC has a switch fluorescence ratio of 1.13.
CGTGCGCATC showed a switch fluorescence ratio of 4.07.
CGTGCGTACT showed a switch fluorescence ratio of 1.03.
Work on CGTGCTGTCC yielded a switch fluorescence ratio of 0.929.
CGTGGAAAG gave a switch fluorescence ratio of 1.
In the case of CGTGGACGTC, the switch fluorescence ratio is reported as 0.998.
CGTGGCAG showed a switch fluorescence ratio of 0.953.
For CGTGGGATGG, the switch fluorescence ratio was 1.01.
Work on CGTGGGCGAG yielded a switch fluorescence ratio of 0.989.
In the case of CGTGGGCGTC, the switch fluorescence ratio is reported as 1.03.
CGTGGGTATC gave a switch fluorescence ratio of 0.962.
CGTGGTTAGC showed a switch fluorescence ratio of 1.02.
CGTGGTTCC showed a switch fluorescence ratio of 1.01.
CGTGGTTGTG gave a switch fluorescence ratio of 0.999.
CGTGTAGGCA showed a switch fluorescence ratio of 0.996.
CGTGTGAAGC gave a switch fluorescence ratio of 1.03.
In the case of CGTGTGACAC, the switch fluorescence ratio is reported as 1.03.
For CGTGTGCATT, the switch fluorescence ratio was 0.972.
With CGTGTGTCGA the switch fluorescence ratio was 1.03.
In the case of CGTGTTCGTC, the switch fluorescence ratio is reported as 1.07.
Work on CGTTAAGTAA yielded a switch fluorescence ratio of 1.03.
CGTTACAGC showed a switch fluorescence ratio of 1.
CGTTAGAGTC was tested, and the switch fluorescence ratio was 1.03.
For CGTTAGCAGG, the switch fluorescence ratio was 1.05.
CGTTAGCTTC was tested, and the switch fluorescence ratio was 1.07.
Sequence CGTTATAGGG has a switch fluorescence ratio of 0.975.
Work on CGTTATCCTA yielded a switch fluorescence ratio of 0.95.
Work on CGTTATTCTT yielded a switch fluorescence ratio of 1.01.
CGTTCACA was tested, and the switch fluorescence ratio was 1.05.
For CGTTCCAACC, the switch fluorescence ratio was 1.07.
Sequence CGTTCCGCTG has a switch fluorescence ratio of 1.29.
CGTTCCTACC showed a switch fluorescence ratio of 1.24.
Sequence CGTTCCTTT has a switch fluorescence ratio of 1.03.
For CGTTCGGCGC, the switch fluorescence ratio was 1.05.
With CGTTCGGGG the switch fluorescence ratio was 1.02.
In the case of CGTTCGTCGT, the switch fluorescence ratio is reported as 1.06.
CGTTCGTTGA was tested, and the switch fluorescence ratio was 1.03.
Work on CGTTCTGATA yielded a switch fluorescence ratio of 0.978.
Work on CGTTCTTAGC yielded a switch fluorescence ratio of 1.03.
In the case of CGTTGACTTA, the switch fluorescence ratio is reported as 1.02.
Work on CGTTGATGAT yielded a switch fluorescence ratio of 0.991.
CGTTGCACCC gave a switch fluorescence ratio of 1.03.
Sequence CGTTGGATCC has a switch fluorescence ratio of 1.03.
CGTTGGATCT gave a switch fluorescence ratio of 0.983.
CGTTGGGTAA showed a switch fluorescence ratio of 0.965.
In the case of CGTTGTAAAC, the switch fluorescence ratio is reported as 0.968.
CGTTTACCTC was tested, and the switch fluorescence ratio was 0.943.
With CGTTTAGGGC the switch fluorescence ratio was 0.962.
CGTTTATGCG gave a switch fluorescence ratio of 0.919.
In the case of CGTTTCGACC, the switch fluorescence ratio is reported as 1.07.
In the case of CGTTTCTCGG, the switch fluorescence ratio is reported as 0.968.
Work on CGTTTGACAT yielded a switch fluorescence ratio of 1.01.
CGTTTGATCC showed a switch fluorescence ratio of 0.973.
Work on CGTTTGCGTC yielded a switch fluorescence ratio of 1.04.
Work on CGTTTTATT yielded a switch fluorescence ratio of 1.02.
CGTTTTCGCG gave a switch fluorescence ratio of 1.
CTAAAAAGGA showed a switch fluorescence ratio of 0.986.
With CTAAAATACA the switch fluorescence ratio was 0.98.
For CTAAAGGATC, the switch fluorescence ratio was 0.945.
With CTAACAACGA the switch fluorescence ratio was 1.02.
CTAACCTTTG was tested, and the switch fluorescence ratio was 1.03.
Work on CTAACGCAGT yielded a switch fluorescence ratio of 1.18.
For CTAACGTGGG, the switch fluorescence ratio was 0.945.
CTAAGACCGT gave a switch fluorescence ratio of 1.01.
CTAAGCACAA showed a switch fluorescence ratio of 1.13.
With CTAAGTAGGC the switch fluorescence ratio was 0.991.
CTAAGTCTGG gave a switch fluorescence ratio of 1.01.
With CTAAGTTAAG the switch fluorescence ratio was 0.973.
CTAATAGGGA was tested, and the switch fluorescence ratio was 1.
CTAATCATGA gave a switch fluorescence ratio of 0.938.
CTAATCCGGG gave a switch fluorescence ratio of 1.08.
For CTAATGTACT, the switch fluorescence ratio was 1.1.
Work on CTAATTAGTC yielded a switch fluorescence ratio of 1.
Work on CTACAAATCG yielded a switch fluorescence ratio of 1.08.
In the case of CTACATGTAG, the switch fluorescence ratio is reported as 1.02.
CTACATTGGG was tested, and the switch fluorescence ratio was 1.01.
CTACATTGTT was tested, and the switch fluorescence ratio was 1.01.
For CTACCAATAA, the switch fluorescence ratio was 5.07.
CTACCATAAT was tested, and the switch fluorescence ratio was 1.07.
For CTACCCGGAA, the switch fluorescence ratio was 1.93.
Work on CTACCGTAGC yielded a switch fluorescence ratio of 3.44.
CTACCTGGCA gave a switch fluorescence ratio of 1.06.
CTACGAGCAG showed a switch fluorescence ratio of 1.12.
CTACGGATCT was tested, and the switch fluorescence ratio was 1.06.
CTACGTCCTC gave a switch fluorescence ratio of 1.23.
CTACGTCCTG was tested, and the switch fluorescence ratio was 1.04.
With CTACTAGCCA the switch fluorescence ratio was 1.05.
For CTACTCTTA, the switch fluorescence ratio was 1.06.
CTACTGGTTT was tested, and the switch fluorescence ratio was 0.992.
In the case of CTACTGTTAT, the switch fluorescence ratio is reported as 1.05.
CTACTTAGCA was tested, and the switch fluorescence ratio was 1.09.
CTACTTGCGA gave a switch fluorescence ratio of 1.13.
Sequence CTACTTTAAT has a switch fluorescence ratio of 0.961.
With CTAGAATCTG the switch fluorescence ratio was 1.04.
For CTAGAGGGTT, the switch fluorescence ratio was 0.993.
CTAGATAAAT showed a switch fluorescence ratio of 1.
In the case of CTAGATACTA, the switch fluorescence ratio is reported as 0.98.
With CTAGATCAGA the switch fluorescence ratio was 1.
In the case of CTAGATTGAC, the switch fluorescence ratio is reported as 1.03.
With CTAGCATTCA the switch fluorescence ratio was 1.01.
CTAGCCAGCG showed a switch fluorescence ratio of 0.985.
CTAGCGGGAA showed a switch fluorescence ratio of 0.999.
Sequence CTAGCTCCG has a switch fluorescence ratio of 1.08.
With CTAGCTGCGT the switch fluorescence ratio was 0.955.
With CTAGCTGGAC the switch fluorescence ratio was 1.72.
CTAGCTGGTT showed a switch fluorescence ratio of 1.1.
Sequence CTAGGAATGC has a switch fluorescence ratio of 2.93.
CTAGGAGTCC was tested, and the switch fluorescence ratio was 1.02.
CTAGGTAACA showed a switch fluorescence ratio of 0.964.
CTAGGTTAC showed a switch fluorescence ratio of 1.47.
Sequence CTAGTAAAGG has a switch fluorescence ratio of 0.953.
CTAGTACTGC gave a switch fluorescence ratio of 0.974.
For CTAGTAGTCC, the switch fluorescence ratio was 1.01.
Sequence CTAGTATGGC has a switch fluorescence ratio of 0.914.
For CTAGTCAATT, the switch fluorescence ratio was 1.01.
CTAGTCGCCT was tested, and the switch fluorescence ratio was 1.02.
With CTAGTCGT the switch fluorescence ratio was 0.974.
Work on CTAGTGCCCA yielded a switch fluorescence ratio of 1.06.
Sequence CTAGTGCCGG has a switch fluorescence ratio of 0.977.
Work on CTAGTTCCTA yielded a switch fluorescence ratio of 1.05.
Work on CTAGTTTTAA yielded a switch fluorescence ratio of 0.988.
With CTATAAGCCC the switch fluorescence ratio was 0.977.
Sequence CTATAGGTC has a switch fluorescence ratio of 0.989.
In the case of CTATAGTGCG, the switch fluorescence ratio is reported as 0.995.
CTATATATGG showed a switch fluorescence ratio of 0.962.
CTATATCCTT was tested, and the switch fluorescence ratio was 1.
CTATCAGCCG was tested, and the switch fluorescence ratio was 1.03.
With CTATCAGCGG the switch fluorescence ratio was 0.983.
For CTATCATAA, the switch fluorescence ratio was 1.01.
For CTATCCATT, the switch fluorescence ratio was 0.996.
Sequence CTATCCGCCG has a switch fluorescence ratio of 0.967.
For CTATCCGTGG, the switch fluorescence ratio was 0.997.
In the case of CTATCCTGTT, the switch fluorescence ratio is reported as 1.02.
For CTATCGCTAT, the switch fluorescence ratio was 2.17.
CTATCGGAGA was tested, and the switch fluorescence ratio was 1.01.
CTATCGTGGG was tested, and the switch fluorescence ratio was 1.06.
CTATCTGAGG showed a switch fluorescence ratio of 1.02.
In the case of CTATGACGGG, the switch fluorescence ratio is reported as 0.99.
Work on CTATGCCGCA yielded a switch fluorescence ratio of 1.09.
CTATGCGC gave a switch fluorescence ratio of 1.07.
Sequence CTATGCGTTG has a switch fluorescence ratio of 1.01.
For CTATGCTAGC, the switch fluorescence ratio was 1.17.
Sequence CTATGGACAT has a switch fluorescence ratio of 0.994.
With CTATGGCCTT the switch fluorescence ratio was 0.987.
With CTATGGCGAG the switch fluorescence ratio was 1.02.
For CTATGGGCTC, the switch fluorescence ratio was 0.984.
Work on CTATGGGGCA yielded a switch fluorescence ratio of 1.
Work on CTATGGGTAC yielded a switch fluorescence ratio of 1.02.
Sequence CTATGTATGC has a switch fluorescence ratio of 1.03.
For CTATGTTTCA, the switch fluorescence ratio was 0.981.
For CTATTAATCC, the switch fluorescence ratio was 0.983.
CTATTACTGG gave a switch fluorescence ratio of 1.
With CTATTAGGAA the switch fluorescence ratio was 0.972.
For CTATTATACC, the switch fluorescence ratio was 1.04.
CTATTCATAG showed a switch fluorescence ratio of 1.03.
CTATTCCGAC showed a switch fluorescence ratio of 1.55.
With CTATTGCGCC the switch fluorescence ratio was 0.984.
Sequence CTATTGGACA has a switch fluorescence ratio of 1.08.
Work on CTATTGGCGC yielded a switch fluorescence ratio of 0.981.
CTATTGTTGC was tested, and the switch fluorescence ratio was 1.09.
Work on CTATTTGCAC yielded a switch fluorescence ratio of 1.02.
CTATTTGCAG was tested, and the switch fluorescence ratio was 1.08.
CTCAAACGAG was tested, and the switch fluorescence ratio was 1.03.
Work on CTCAAGGCTC yielded a switch fluorescence ratio of 1.19.
In the case of CTCACAAATT, the switch fluorescence ratio is reported as 0.99.
Work on CTCACGAGGG yielded a switch fluorescence ratio of 1.02.
With CTCACGTCTC the switch fluorescence ratio was 1.11.
Work on CTCAGACCCT yielded a switch fluorescence ratio of 1.08.
CTCAGAGT was tested, and the switch fluorescence ratio was 1.02.
For CTCAGATTAT, the switch fluorescence ratio was 0.997.
In the case of CTCAGCAGTG, the switch fluorescence ratio is reported as 1.33.
Work on CTCAGCCCCG yielded a switch fluorescence ratio of 1.03.
Sequence CTCAGCCGGA has a switch fluorescence ratio of 0.957.
CTCAGCGGAG showed a switch fluorescence ratio of 1.08.
In the case of CTCAGGAGCG, the switch fluorescence ratio is reported as 0.993.
CTCAGGGTCC showed a switch fluorescence ratio of 0.987.
Sequence CTCAGTCTCC has a switch fluorescence ratio of 1.27.
CTCAGTTTGG gave a switch fluorescence ratio of 1.02.
